Data taken from PubChem BioAssay AID624296 (National Center for Advancing Translational Sciences (NCATS), 2012).
Among all 350,000 compounds or so, about 9,900 (2.8%) were called active. Inconclusive results, whose numbers are uncertain, are shown with a selection of clear calls. Calls follow the shape of the dose curve; as a rule, active = well fitted activation curve with a large enough effect; inconclusive = small, poorly fitted or top-dose-only effect; inactive = no such curve, though single readings can be large or run the other way. No potency is given beside an inconclusive call; the fits are too rough.

Assay: A quantitative high throughput screen for small molecules that induce DNA re-replication in MCF 10a normal breast cells. Also: nearly all actives have a fitted effect of over 50% in size.
Conditions: MCF 10A DNA re-replication, Hoechst nuclear intensity, 48 h; series mostly up to 46.1 µM
Potency is read from the fitted curve at half-maximal effect; tags tell the direction and shape of the fitted curve.

Row | SMILES | Potency
1 | CCOC(=O)C1CCCN(c2nc3ccccc3nc2C(C#N)C(=O)NCc2ccccc2)C1 (configuration not stated) | inconclusive [activator, single point]
2 | COc1cc(/C=C(/C#N)C(=O)c2c(C)[nH]c3ccccc23)ccc1OCC#N | inconclusive [activator, single point]
3 | Cc1ccc(C)n1-c1ccc(-c2nnc3n2CCCCC3)s1 | inconclusive [activator, single point]
4 | COCCCNc1nc2c(-c3cccc(C)c3)nnn2c2ccccc12 | active: 13 µM
5 | COc1ccc(Nc2ncnc3c2cnn3Cc2ccccc2)cc1OC | inactive
6 | Cn1c(C(=O)NCCN2CCc3ccccc3C2)cc2c(=O)n(C)c3ccccc3c21 | inactive
7 | COc1ccc(NC(=S)Nc2cc(C)ccn2)c(OC)c1 | inactive
8 | CCOC(=O)c1c(NC(=O)CN2CCCCC2)sc2c1CCN(C(=O)OCC)C2 | inactive
9 | Cc1ccnc(Nc2nc(-c3ccc(O)cc3O)cs2)c1 | inconclusive [activator, single point]
10 | O=C(CSC1=NCCS1)Nc1ccc(S(=O)(=O)NC2CCCCC2)cc1 | inconclusive [activator, partial curve, poor fit]
11 | COc1cccc(Nc2nc3ccccc3c(=O)[nH]2)c1 | inactive
12 | CCOC(=O)c1c(-c2ccc(C)o2)csc1NC(=O)CN1CCC(C(N)=O)CC1 | inconclusive [activator, single point]
13 | NC(=O)C1CCN(C(=O)C2CCN(S(=O)(=O)c3ccccc3)CC2)CC1 | inconclusive [activator, full curve, poor fit]
14 | COCCn1c(=N)c(S(=O)(=O)c2ccc(F)cc2)cc2c(=O)n3ccccc3nc21 | active: 18.4 µM
15 | CCC(=O)Nc1nc(C)c(-c2csc(Nc3cccc(O)c3)n2)s1 | active: 20.6 µM
16 | COc1ccc(CC(=O)N2N=C(c3ccncc3)CC2(O)C(F)(F)F)cc1 (configuration not stated) | inconclusive [activator, single point]
17 | COC(=O)COc1ccc2oc(=O)cc(-c3cc4cccc(OC)c4o3)c2c1 | inactive
18 | CCCSc1nc(N2CCOCC2)c2c(c1C#N)CC(C)(C)SC2 | inconclusive [activator, partial curve, poor fit]
19 | N#Cc1c(N)nc2c(c1-c1ccncc1)CCCCC2 | inconclusive [activator, partial curve]
20 | COC(=O)C1Cc2c([nH]c3ccccc23)CN1C(C)=O (configuration not stated) | inactive
21 | O=C(NNc1ncnc2c1cnn2-c1cccc(Cl)c1)c1ccco1 | inconclusive [activator, single point]
22 | Cc1ccc2c(C)c(C(=O)NCC(C)(C)N3CCOCC3)oc2c1C | inconclusive [activator, partial curve]
23 | Cc1nn2c(N3CCOCC3)c3c(nc2c1-c1ccccc1)CCCC3 | inconclusive [activator, partial curve, poor fit]
24 | Cc1nc(CS(=O)(=O)c2ccc(Cl)cc2)cc(Sc2ccccc2Cl)n1 | inconclusive [activator, partial curve, poor fit]

Row | SMILES | Potency
25 | CCn1cnc2sc(C(=O)Nc3ccc4c(c3)OCO4)c(C)c2c1=O | inactive
26 | CCCc1nnc(NC(=O)CN2C(=O)c3ccccc3C2=O)s1 | inactive
27 | CCC(C)C(=O)Nc1nccs1 (configuration not stated) | inactive
28 | COc1ccc(Cn2nnnc2C(c2ccccn2)N2CCN(c3cc(Cl)ccc3C)CC2)cc1 (configuration not stated) | inactive
29 | CN(Cc1nc2ccccc2c(=O)[nH]1)C(=O)c1cccc(S(=O)(=O)N2CCc3ccccc32)c1 | inconclusive [activator, full curve]
30 | COc1cccc(-n2nnc3c(=O)n(Cc4ccc(C)cc4)cnc32)c1 | inactive
31 | CC1CCN(C(=O)CSc2nc3ccccc3c(=O)n2Cc2ccc3c(c2)OCO3)CC1 | inconclusive [activator, single point]
32 | CCSc1ccccc1C(=O)Nc1nc2ccccc2c(=O)[nH]1 | inactive
33 | O=C(Nc1ccc2c(c1)OCCO2)Nc1ccc2c(c1)OCO2 | inactive
34 | CCn1c(SCC(=O)Nc2ccc3c(c2)OCCO3)nnc1-c1ccccn1 | inactive
35 | COc1ccc(C(=O)Nc2ccccc2C(=O)NCc2ccco2)cc1OC | inconclusive [activator, partial curve, poor fit]
36 | Cc1ccc(OCc2ccc(C(=O)Nc3nc4ccccc4n3Cc3ccccc3)o2)c([N+](=O)[O-])c1 | active: 12.6 µM
37 | O=C1c2ccccc2S(=O)(=O)N1CC(O)Cn1c2ccccc2c2ccccc21 (configuration not stated) | inconclusive [activator, single point]
38 | COc1cccc(C(=O)/C=C/c2ccc(SC)cc2)c1 | inconclusive [activator, single point]
39 | O=C(c1sccc1Cl)N1CCN(Cc2ccc3c(c2)OCO3)CC1 | inconclusive [activator, single point]
40 | Fc1ccc2nc(Nc3nc4c(s3)CCCC4)sc2c1 | inconclusive [activator, partial curve]
41 | COCCN1Cc2cc3cc(C)ccc3nc2SC1=Nc1ccc(OC)cc1 | inactive
42 | CC(C)OC(=O)CSc1nc(-c2ccc(F)cc2)cc(C(F)(F)F)n1 | inconclusive [activator, single point]
43 | Cc1cccc(S(=O)(=O)Nc2ccc(-c3cn4ccccc4n3)cc2)c1 | inactive
44 | Cc1cccc(NC2=Nc3ccccc3N3C2=Nc2c(c(C)nn2-c2ccccc2)C3c2ccc(O)c(O)c2)c1 (configuration not stated) | inconclusive [activator, partial curve, poor fit]
45 | Cc1oc(-c2cccc(Cl)c2)nc1CN1CCC(C(=O)N2CCN(c3ccccn3)CC2)CC1 | inactive
46 | CCCCCCSc1nnc(-c2cnn(-c3ccccc3)c2-n2cccc2)n1C | inconclusive [activator, single point]
47 | CC1CCc2sc(NC(=S)NC(=O)c3ccccc3)c(C#N)c2C1 (configuration not stated) | inconclusive [activator, single point]
